Reference: PubChem BioAssay AID488969 (Vanderbilt High Throughput Screening Facility, 2010)
Over roughly 110,000 compounds, “z-score” has its median near -0.1; the highest 2% begin near 2. The list shows a part of the results. Activity calls are given as the source filed them.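 How the source made its calls: active means z-score in the third read window above 3 or below -3; inactive means the rest.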

Each compound was assayed against Metabotropic glutamate receptor 8 (Rattus norvegicus) (UniProt P70579) (assay: mGluR8 Gi/Go-coupled signaling modulation – cell-based, rat, thallium flux, HTS, primary screen (AID 488969)). Settings: HEK293 rat mGluR8, GIRK (G protein-gated inwardly rectifying potassium channel) thallium flux, FluoZin2; at 10 µM; stronger effect = higher value; submaximal glutamate (EC20) added with thallium.
Chain of UniProt P70579 (P70579 whole entry, looked up): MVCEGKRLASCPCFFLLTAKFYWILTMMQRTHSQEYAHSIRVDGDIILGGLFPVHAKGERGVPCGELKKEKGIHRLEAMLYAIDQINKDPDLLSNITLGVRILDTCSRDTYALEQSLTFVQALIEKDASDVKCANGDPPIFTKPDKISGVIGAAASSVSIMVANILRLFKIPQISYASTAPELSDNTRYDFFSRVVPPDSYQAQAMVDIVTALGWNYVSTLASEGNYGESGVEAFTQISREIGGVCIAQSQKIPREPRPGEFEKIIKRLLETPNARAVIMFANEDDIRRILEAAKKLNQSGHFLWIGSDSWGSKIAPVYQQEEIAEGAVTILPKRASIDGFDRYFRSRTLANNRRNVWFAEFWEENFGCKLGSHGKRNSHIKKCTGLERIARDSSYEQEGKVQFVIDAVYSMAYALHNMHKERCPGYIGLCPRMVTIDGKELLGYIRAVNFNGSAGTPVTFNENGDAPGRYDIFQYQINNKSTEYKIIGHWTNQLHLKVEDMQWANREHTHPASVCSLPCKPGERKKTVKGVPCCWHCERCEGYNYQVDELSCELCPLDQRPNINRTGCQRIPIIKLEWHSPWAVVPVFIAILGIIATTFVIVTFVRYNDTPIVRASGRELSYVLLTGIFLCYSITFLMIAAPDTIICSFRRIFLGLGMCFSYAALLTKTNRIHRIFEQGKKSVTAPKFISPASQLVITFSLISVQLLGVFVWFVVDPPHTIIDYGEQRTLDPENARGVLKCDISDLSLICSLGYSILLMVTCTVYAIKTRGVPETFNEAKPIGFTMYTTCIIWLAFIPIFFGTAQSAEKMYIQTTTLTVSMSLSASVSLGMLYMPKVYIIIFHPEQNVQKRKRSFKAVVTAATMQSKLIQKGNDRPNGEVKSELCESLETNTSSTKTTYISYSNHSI
Compound `COc1cc(NC(=O)c2ccco2)c(OC)cc1NC(=O)CCC(=O)Nc1cccc(C)c1C` has a z-score of -0.133.
`CCCCOC(=O)c1ccc(NC(=O)c2cnccn2)cc1` was tested, and the z-score was 0.00424.
`COc1ccc(C(O)c2nccn2Cc2ccccc2)cc1` (centres undefined) showed a z-score of -0.225.
Work on `CC(=O)Nc1ccc(-c2cc(-c3ccccc3)nc(-c3ccccc3)n2)cc1` yielded a z-score of -0.205.
`C=CCn1cc([N+](=O)[O-])nc1C` showed a z-score of -0.339.
`O=C(CCC1CCCCC1=O)c1ccccc1` (centres undefined) showed a z-score of 0.0492.
In the case of `COc1ccc(Cl)cc1NC(=O)CCc1ccccc1`, the z-score was -0.364.
`CCn1cc(C(=O)O)c(=O)c2cc(OC)ccc21` was tested, and the z-score was 0.0453.
Compound `CN(CC(=O)Nc1c(Cl)cccc1Cl)C(=O)CCCN1C(=O)c2ccccc2C1=O` has a z-score of -0.0272.
For `N#CC1=C(N)Oc2n[nH]c(-c3ccc(F)cc3)c2C1c1cccnc1` (centres undefined), the z-score was -0.85.
Compound `CN(Cc1cn(-c2ccccc2)nc1-c1ccc(F)cc1)C(=O)CCC(=O)O` has a z-score of 0.0103.
`Cc1ccc2nc(SCC(=O)Nc3ccc(C)c([N+](=O)[O-])c3)[nH]c2c1` showed a z-score of 0.188.
With `O=C(CSc1ccc2nnc(-c3cccnc3)n2n1)NCc1ccco1` the z-score was -0.113.
With `O=C(CCn1cccc1)Nc1cc(F)ccc1F` the z-score was -0.224.
With `COc1cccc(NC(=O)C2CCN(c3ncccn3)CC2)c1` the z-score was 0.0761.
For `O=C(CCCCC(=O)NCc1cccs1)NCc1cccs1`, the z-score was 0.0638.
Compound `O=C1c2ccccc2C(=O)N1CCCn1c(=O)oc2ccccc21` has a z-score of -0.0485.
In the case of `COc1ccc(NC(=O)c2nnn(Cc3cccc(F)c3)c2N)c(OC)c1`, the z-score was -0.0724.
Work on `CCOC(=O)C1=C(COc2ccc(F)cc2Cl)NC(=O)NC1c1cc(C)ccc1C` (centres undefined) yielded a z-score of -0.0146.
`COC(=O)CC1C(=O)NC2CCCCC2N1C(=O)c1ccccc1` (centres undefined) showed a z-score of 0.157.
`COC(=O)c1ccccc1NC(=O)C1CCCC1` showed a z-score of -0.824.
`COC(=O)c1ccc(CO/N=C(\NC(C)=O)c2nonc2NC(C)=O)cc1` showed a z-score of -0.173.
`Cc1ccc(NC(=O)[C@@H](NC(=O)c2cccc(S(=O)(=O)N3CCOCC3)c2)C(C)C)cc1C` was tested, and the z-score was -0.248.
With `O=C(Nc1cccc(C(F)(F)F)c1)c1ccccc1NC(=O)C1CCCCC1` the z-score was 0.458.
Compound `Cc1cc(C(=O)Nc2c(C)cccc2C)n(-c2ccccc2)n1` has a z-score of -0.132.
Work on `Cc1ccc(S(=O)(=O)CC(=O)NC2CC2)cc1` yielded a z-score of -0.0321.
`O=C(Nc1ccccc1C(=O)NC1CCCCC1)c1ccco1` gave a z-score of -0.17.
`COc1ccccc1NC(=S)NNC(=O)c1cc(C)nn1C` showed a z-score of -0.259.
`COc1cc(C2NC(=O)NC(C)=C2C(=O)OC(C)C)ccc1OC(=O)c1ccco1` (centres undefined) was tested, and the z-score was -0.321.
Work on `COC(=O)c1sc2nc(CSc3nc4ccc(C)cc4[nH]3)[nH]c(=O)c2c1C` yielded a z-score of -0.816.
`COc1cc(C2C3C(=O)N(c4ccc(F)cc4)C(=O)C3ON2c2ccccc2)ccc1O` (centres undefined) gave a z-score of -0.474.
`Cc1c(C(=O)N2CC(C)OC(C)C2)sc2nc(-c3ccccc3)cn12` (centres undefined) showed a z-score of -0.0847.
`COc1ccc(/C=C(\NC(=O)c2ccccc2)C(=O)N/N=C/c2ccncc2)cc1` gave a z-score of 0.162.
With `CCOC(=O)c1c(NC(N)=O)sc(C)c1C` the z-score was -0.487.
With `Cc1ccc(-n2ncc3c(=O)n(CC(=O)NC4CCCC4)cnc32)cc1C` the z-score was -0.127.
`O=C(Nc1ccccc1C(=O)O)c1ccccc1` showed a z-score of 0.14.
For `Cc1ccc(-c2nc(NCc3ccco3)c3ccccc3n2)cc1`, the z-score was 0.0674.
For `COc1ccccc1N1CCN(C(=O)C(C)N(c2ccc(C)c(C)c2)S(C)(=O)=O)CC1` (centres undefined), the z-score was -0.0107.
For `O=C(Nc1cccn(Cc2c(Cl)cccc2Cl)c1=O)c1ccc(Cl)cc1Cl`, the z-score was 0.00481.
Compound `Cc1ccc2c(c1)SC1=NC(c3ccccc3)(C(F)(F)F)NC(=O)N12` (centres undefined) has a z-score of 0.232.
With `COc1ccc(C2CC(=O)C(C=NCCO)=C(O)C2)cc1OC` (centres undefined) the z-score was -0.0297.
In the case of `O=C(COC(=O)c1ccc(S(=O)(=O)NCc2ccco2)cc1)Nc1ncc(Cl)cc1Cl`, the z-score was 0.00713.
For `O=C(NCc1ccco1)C1CC(=O)N(CCc2ccccc2)C1` (centres undefined), the z-score was -0.445.
`COC(=O)Cc1c(C)nc2nc(-c3ccc(Cl)cc3)[nH]n2c1=O` showed a z-score of -0.123.
For `O=C(c1cc2ccccn2n1)N1CCCC1`, the z-score was -0.155.
Compound `Cc1cccc[n+]1C1C(c2ccccc2)C(C#N)=C(C(=C=[N-])C#N)NC1(O)C1CC1` (centres undefined) has a z-score of 0.0116.
With `CCOC(=O)CSc1nnc(CNc2ccc(Cl)cc2)n1Cc1ccccc1` the z-score was -0.258.
For `O=C(Nc1ccccc1C(=O)O)c1ccc(NC(=O)c2ccc(Br)o2)cc1`, the z-score was active: -3.02.
Compound `COC(=O)CSc1nc(C)c(Oc2ccccc2)c(=O)[nH]1` has a z-score of -0.000796.
`Cc1onc(-c2ccccc2)c1C(=O)Nc1cc(C(F)(F)F)ccc1N1CCOCC1` was tested, and the z-score was 0.981.
For `CCCCNC(=O)CN1CCC2(O)CCCCC2C1c1ccccc1OC` (centres undefined), the z-score was -0.626.
`Cc1cccc(S(=O)(=O)NNC(=O)c2sc(C)nc2C)c1` was tested, and the z-score was -0.183.
With `COc1cc(/C=C/C(=O)NNc2c(F)c(F)cc(F)c2F)ccc1OC(F)F` the z-score was -0.988.
`C=CCOC(=O)C1=C(C)Nc2[nH]c(=O)[nH]c(=O)c2C1c1cccc(OC)c1` (centres undefined) was tested, and the z-score was 0.219.
For `CC(NC(=O)COc1ccccc1)C(=O)NC1=NCCS1` (centres undefined), the z-score was active: 3.96.
`Cc1nc(SCC(=O)c2ccccc2)c([N+](=O)[O-])[nH]1` gave a z-score of -0.0328.
For `COc1ccccc1C1/C(=C(/O)c2ccc(OC(C)C)cc2)C(=O)C(=O)N1c1cc(C)on1` (centres undefined), the z-score was -1.62.
For `CCN(CC)S(=O)(=O)c1cccc(C(=O)NCCCN2CCOCC2)c1`, the z-score was 0.102.
In the case of `COc1cccc(C(Nc2ccccn2)c2c(NC(=O)c3ccco3)sc(C)c2C)c1` (centres undefined), the z-score was -0.418.
Compound `COc1ccc(Cn2c(C)c(C)c(C#N)c2NC(=O)Nc2ccc(F)cc2)cc1` has a z-score of -0.265.
Compound `CCc1ccc(C2NC(c3ccc(CC)cc3)C([N+](=O)[O-])C(C)(C)C2[N+](=O)[O-])cc1` (centres undefined) has a z-score of -0.247.
Compound `CCOC(=O)c1cnc(-c2ccccc2)[nH]c1=O` has a z-score of -0.0836.
In the case of `Cc1cccc(OCc2nc(C#N)c(N3CC(C)CC(C)C3)o2)c1` (centres undefined), the z-score was -0.118.
`COc1ccc(CN2CC(C(=O)NCCCN3CCN(C)CC3)CC2=O)cc1` (centres undefined) showed a z-score of -0.0662.
For `C=CCNC(=S)NNC(=O)CCC(O)CCCCC` (centres undefined), the z-score was 0.312.
With `O=C(CN1CCC(n2nnc3cc(C(F)(F)F)ccc32)CC1)Nc1ccc2c(c1)CCC2` the z-score was -0.194.
`CC(=O)Nc1ccc(S(=O)(=O)NCCSCc2ccc(Cl)cc2Cl)cc1` gave a z-score of 0.0285.
`Cc1ccc(CSCCC(=O)NCCc2ccc(Cl)cc2)cc1` showed a z-score of 0.0352.
In the case of `O=C(NC1(C(F)(F)F)N=C(c2ccccc2)NC1=O)c1ccccc1F` (centres undefined), the z-score was -0.0803.
